In the supplement of paper PMC4967469:

Experiments:
Assay in all cases: Viability of human cancer cell lines after 72 h of drug (GDSC screen)
BX-912 = compound: O=C(Nc1cccc(Nc2ncc(Br)c(NCCc3cnc[nH]3)n2)c1)N1CCCC1 [BX-912]; details: top dose 10.24 µM; top dose inferred
Method: (§1)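 Human cancer cell lines in 384-well plates, medium with 10% serum, drug for 72 h over a 256-fold dose range (nine 2-fold or five 4-fold steps up to the top dose). Adherent lines were fixed and stained with the nucleic acid dye Syto60, suspension lines read with resazurin; signal relative to control wells, capped at 0 and 100%. One two-parameter sigmoid per drug and line, fitted in a mixed model over all curves with the slope shared within a line.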

VNLG/124 = compound: CCCC(=O)OCc1ccc(OC(=O)/C=C(C)/C=C/C=C(C)/C=C/C2=C(C)CCCC2(C)C)cc1 [VNLG/124]; details: top dose 5.12 µM; top dose inferred
Method: as §1

Elesclomol = compound: CN(NC(=O)CC(=O)NN(C)C(=S)c1ccccc1)C(=S)c1ccccc1 [Elesclomol]; details: top dose 0.2 µM; top dose inferred
Method: as §1

Masitinib = compound: Cc1ccc(NC(=O)c2ccc(CN3CCN(C)CC3)cc2)cc1Nc1nc(-c2cccnc2)cs1 [Masitinib]; details: top dose 20 µM
Method: as §1

NSC-87877 = compound: O=S(=O)(O)c1ccc2cc(N=Nc3cc(S(=O)(=O)O)c4cccnc4c3O)ccc2c1 [NSC-87877]; details: top dose 16 µM; top dose inferred
Method: as §1

Bleomycin = compound: Cc1c(N)nc([C@H](CC(N)=O)NC[C@H](N)C(N)=O)nc1C(=O)N[C@H](C(=O)N[C@H](C)[C@@H](O)[C@H](C)C(=O)N[C@H](C(=O)NCCc1nc(-c2nc(C(=O)NCCC[S+](C)C)cs2)cs1)[C@@H](C)O)[C@@H](OC1OC(CO)C(O)C(O)C1OC1OC(CO)C(O)C(OC(N)=O)C1O)c1cnc[nH]1 [Bleomycin]
Method: as §1

OSI-930 = compound: O=C(Nc1ccc(OC(F)(F)F)cc1)c1sccc1NCc1ccnc2ccccc12 [OSI-930]; details: top dose 10.24 µM
Method: as §1

LAQ824 = compound: O=C(/C=C/c1ccc(CN(CCO)CCc2c[nH]c3ccccc23)cc1)NO [LAQ824]; details: top dose 1.024 µM; top dose inferred
Method: as §1

[1] = top dose 64 µM, screen: GDSC drug entry 190
[2] = top dose 50 µM, screen: GDSC drug entry 1378, top dose inferred

Cell Line	AUC (BX-912)	IC50 (BX-912)	AUC (VNLG/124)	IC50 (VNLG/124)	AUC (Elesclomol)	IC50 (Elesclomol)	AUC (Masitinib)	IC50 (Masitinib)	AUC (NSC-87877)	IC50 (NSC-87877)	AUC (Bleomycin; [1])	IC50 (Bleomycin; [1])	AUC (OSI-930)	IC50 (OSI-930)	AUC (LAQ824)	IC50 (LAQ824)	AUC (Bleomycin; [2])	IC50 (Bleomycin; [2])
201T (lung adenocarcinoma, adherent)	0.876	> 10.2 µM	0.977	> 5.12 µM	0.648	0.0359 µM	0.923	> 20 µM	0.958	> 16 µM	0.046	< 0.25 µM	0.976	> 10.2 µM	0.387	0.0288 µM	–	–
A431 (skin, adherent)	0.786	4.23 µM	0.979	> 5.12 µM	0.764	0.0697 µM	0.875	18.1 µM	0.967	> 16 µM	0.33	1.38 µM	0.884	> 10.2 µM	0.361	0.027 µM	0.32	1.01 µM
BB30-HNC (head and neck, adherent)	0.872	9.43 µM	0.983	> 5.12 µM	0.428	0.00796 µM	0.884	> 20 µM	0.979	> 16 µM	0.051	< 0.25 µM	0.959	> 10.2 µM	0.417	0.038 µM	0.068	< 0.195 µM
BxPC-3 (pancreas, adherent)	0.913	> 10.2 µM	0.976	> 5.12 µM	0.784	0.0961 µM	0.854	19 µM	0.982	> 16 µM	0.505	4.13 µM	0.983	> 10.2 µM	0.399	0.0325 µM	0.617	6.83 µM
C3A (liver, adherent)	0.988	> 10.2 µM	0.978	> 5.12 µM	0.97	> 0.2 µM	0.983	> 20 µM	0.916	> 16 µM	0.275	0.889 µM	0.982	> 10.2 µM	0.415	0.0371 µM	0.811	27.8 µM
C-33-A (cervix, adherent)	0.954	> 10.2 µM	0.979	> 5.12 µM	0.41	0.00709 µM	0.893	> 20 µM	0.953	> 16 µM	0.219	0.6 µM	0.964	> 10.2 µM	0.413	0.0369 µM	0.258	0.633 µM
CAL-51 (breast, adherent)	0.968	> 10.2 µM	0.99	> 5.12 µM	0.201	0.00192 µM	0.974	> 20 µM	0.786	5.92 µM	0.02	< 0.25 µM	0.939	> 10.2 µM	0.497	0.0629 µM	0.103	0.206 µM
CAL-85-1 (breast, adherent)	0.891	> 10.2 µM	0.981	> 5.12 µM	0.757	0.0874 µM	0.863	> 20 µM	0.828	14 µM	0.038	< 0.25 µM	0.906	> 10.2 µM	0.266	0.0112 µM	0.913	> 50 µM
CAL-120 (breast, adherent)	0.853	> 10.2 µM	0.968	> 5.12 µM	0.532	0.0157 µM	0.979	> 20 µM	0.905	> 16 µM	0.531	4.99 µM	0.951	> 10.2 µM	0.55	0.0913 µM	0.613	7.02 µM
CCRF-CEM (lymphoblastic leukaemia, suspension)	–	–	0.972	> 5.12 µM	0.337	0.00478 µM	–	–	0.991	> 16 µM	0.218	0.715 µM	0.96	> 10.2 µM	0.24	0.0133 µM	0.81	21.3 µM
CMK (acute myeloid leukaemia, suspension)	0.834	5.28 µM	0.744	1.4 µM	0.988	> 0.2 µM	0.777	6.79 µM	0.968	> 16 µM	0.727	15.6 µM	0.923	> 10.2 µM	0.142	0.00636 µM	0.945	> 50 µM
Ca-Ski (cervix, adherent)	0.698	2.48 µM	0.981	> 5.12 µM	0.578	0.021 µM	0.791	10.2 µM	0.981	> 16 µM	0.313	1.12 µM	0.895	> 10.2 µM	0.456	0.0478 µM	0.346	1.11 µM
DJM-1 (skin, adherent)	0.982	> 10.2 µM	0.988	> 5.12 µM	0.665	0.0358 µM	0.977	> 20 µM	0.989	> 16 µM	0.333	1.38 µM	0.963	> 10.2 µM	0.705	0.241 µM	0.442	2.18 µM
DOHH-2 (B-cell lymphoma, suspension)	–	–	–	–	0.858	0.159 µM	–	–	0.984	> 16 µM	0.568	6.12 µM	–	–	0.365	0.0273 µM	–	–
DU-145 (prostate, adherent)	0.984	> 10.2 µM	0.973	> 5.12 µM	0.884	> 0.2 µM	0.978	> 20 µM	0.984	> 16 µM	0.279	0.869 µM	0.961	> 10.2 µM	0.414	0.0362 µM	0.708	13.1 µM
DU-4475 (breast, suspension)	0.8	3.93 µM	0.992	> 5.12 µM	0.847	0.109 µM	0.892	15.9 µM	0.978	> 16 µM	0.326	1.45 µM	0.968	> 10.2 µM	0.264	0.0159 µM	0.771	15.8 µM

Cell Line	AUC (BX-912)	IC50 (BX-912)	AUC (VNLG/124)	IC50 (VNLG/124)	AUC (Elesclomol)	IC50 (Elesclomol)	AUC (Masitinib)	IC50 (Masitinib)	AUC (NSC-87877)	IC50 (NSC-87877)	AUC (Bleomycin; [1])	IC50 (Bleomycin; [1])	AUC (OSI-930)	IC50 (OSI-930)	AUC (LAQ824)	IC50 (LAQ824)	AUC (Bleomycin; [2])	IC50 (Bleomycin; [2])
GCIY (stomach, adherent)	0.973	> 10.2 µM	0.979	> 5.12 µM	0.906	> 0.2 µM	0.869	> 20 µM	0.98	> 16 µM	0.632	9.75 µM	0.97	> 10.2 µM	0.404	0.0337 µM	–	–
HCC70 (breast, adherent)	0.838	6.77 µM	0.988	> 5.12 µM	0.842	0.137 µM	0.893	> 20 µM	0.988	> 16 µM	0.87	57.6 µM	0.984	> 10.2 µM	0.497	0.0627 µM	0.891	> 50 µM
HCC1143 (breast, adherent)	0.949	> 10.2 µM	0.979	> 5.12 µM	0.74	0.0819 µM	0.891	> 20 µM	0.926	> 16 µM	0.68	15.6 µM	0.966	> 10.2 µM	0.438	0.0405 µM	0.795	34.7 µM
HCC1187 (breast, suspension)	0.561	0.929 µM	0.987	> 5.12 µM	0.723	0.0518 µM	0.946	> 20 µM	0.986	> 16 µM	0.785	26 µM	0.918	> 10.2 µM	0.932	> 1.02 µM	0.45	2.29 µM
HCC1500 (breast, adherent)	0.987	> 10.2 µM	0.93	> 5.12 µM	0.927	> 0.2 µM	0.912	> 20 µM	0.988	> 16 µM	0.213	0.553 µM	0.962	> 10.2 µM	0.439	0.0433 µM	0.935	> 50 µM
HDQ-P1 (breast, adherent)	0.961	> 10.2 µM	0.939	> 5.12 µM	0.943	> 0.2 µM	0.969	> 20 µM	0.985	> 16 µM	0.82	46.3 µM	0.925	> 10.2 µM	0.715	0.296 µM	0.784	25.8 µM
HT (B-cell lymphoma, suspension)	0.947	> 10.2 µM	0.962	> 5.12 µM	0.815	0.0984 µM	0.87	16.1 µM	0.987	> 16 µM	0.556	5.61 µM	0.951	> 10.2 µM	0.412	0.0376 µM	0.87	40.2 µM
HT-1080 (fibrosarcoma, adherent)	0.97	> 10.2 µM	0.989	> 5.12 µM	0.361	0.0054 µM	0.937	> 20 µM	0.971	> 16 µM	0.196	0.567 µM	0.972	> 10.2 µM	0.538	0.0803 µM	0.143	0.286 µM
JSC-1 (B-cell lymphoma, suspension)	0.621	1.37 µM	0.954	> 5.12 µM	0.604	0.024 µM	0.664	3.54 µM	0.963	> 16 µM	0.489	3.74 µM	0.922	> 10.2 µM	0.22	0.00983 µM	0.862	41.9 µM
KMS-12-BM (myeloma, suspension)	0.83	4.98 µM	0.977	> 5.12 µM	0.465	0.0102 µM	0.795	7.53 µM	0.989	> 16 µM	0.866	41.3 µM	0.901	9.16 µM	0.262	0.0155 µM	–	–
LN-229 (glioma, adherent)	0.984	> 10.2 µM	0.981	> 5.12 µM	0.567	0.0191 µM	0.976	> 20 µM	–	–	0.773	24.9 µM	0.981	> 10.2 µM	0.46	0.0498 µM	0.482	2.8 µM
MDA-MB-231 (breast, adherent)	–	–	0.968	> 5.12 µM	0.575	0.0203 µM	0.916	> 20 µM	0.985	> 16 µM	0.195	0.461 µM	–	–	0.518	0.0721 µM	0.816	30 µM
ME-180 (cervix, adherent)	0.777	4.3 µM	0.967	> 5.12 µM	0.489	0.0116 µM	0.883	> 20 µM	–	–	0.85	51.7 µM	0.966	> 10.2 µM	0.558	0.0931 µM	0.371	1.35 µM
NCI-H1963 (small cell lung carcinoma, suspension)	–	–	0.984	> 5.12 µM	0.744	0.0559 µM	–	–	0.973	> 16 µM	0.917	> 64 µM	–	–	0.375	0.0304 µM	–	–
U-87-MG (glioma, adherent)	0.963	> 10.2 µM	0.973	> 5.12 µM	0.868	> 0.2 µM	0.882	> 20 µM	–	–	0.633	9.99 µM	0.983	> 10.2 µM	0.734	0.338 µM	0.773	23 µM

Lines with a small IC50 respond at low doses; a limit (>, <) means that the fit lies beyond the doses tested. AUC sums up the same curve from the lowest dose to the 256-fold higher top dose: 1 means no effect, lower means more sensitive. For some of these results: The top dose, if marked as inferred, was derived from the fitted curves, not read from the paper. For some of these results: An entry number marks a drug with two screens in the source, which often give different values.
